Data reported in US20090156421A1 (published 2009).

T1: Cy5-IL-13Rα1 plus IL-4R (500 nM) in solution (human, UniProt P78552 22-343; P24394 26-232, Cy5 label; site not stated)
T1 construct: extracellular domain; It is not a fusion; also called IL-4R/Cy5-IL-13Rα1
T1 sequence (looked up) 1: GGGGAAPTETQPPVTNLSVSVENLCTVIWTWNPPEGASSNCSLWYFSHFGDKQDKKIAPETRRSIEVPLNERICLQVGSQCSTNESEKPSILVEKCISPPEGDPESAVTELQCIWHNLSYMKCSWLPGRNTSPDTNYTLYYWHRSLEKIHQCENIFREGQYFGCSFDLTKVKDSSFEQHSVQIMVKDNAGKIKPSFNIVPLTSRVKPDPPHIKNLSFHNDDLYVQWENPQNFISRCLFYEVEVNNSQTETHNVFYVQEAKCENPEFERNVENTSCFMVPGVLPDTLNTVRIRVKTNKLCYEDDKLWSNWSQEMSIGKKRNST
T1 sequence (looked up) 2: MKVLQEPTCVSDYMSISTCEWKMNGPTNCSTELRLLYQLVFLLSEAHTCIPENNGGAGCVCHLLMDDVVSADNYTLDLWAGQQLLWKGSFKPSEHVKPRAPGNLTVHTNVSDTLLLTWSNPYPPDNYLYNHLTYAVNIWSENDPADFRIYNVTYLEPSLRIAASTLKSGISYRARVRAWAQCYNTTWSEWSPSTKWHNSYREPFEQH

T2: IL-13Rα1 + IL-4R co-immobilised on one sensor chip surface (high affinity receptor) (human, UniProt P78552 22-343; P24394 26-232)
T2 construct: extracellular domain; The two receptors were injected separately over the same flow cell of a CM5 chip, at ratios from 1:1 to 1:10; They are not a fusion; also called IL-4R/IL-13Rα1; heterodimeric IL-13 receptor complex
T2 sequence (looked up) 1: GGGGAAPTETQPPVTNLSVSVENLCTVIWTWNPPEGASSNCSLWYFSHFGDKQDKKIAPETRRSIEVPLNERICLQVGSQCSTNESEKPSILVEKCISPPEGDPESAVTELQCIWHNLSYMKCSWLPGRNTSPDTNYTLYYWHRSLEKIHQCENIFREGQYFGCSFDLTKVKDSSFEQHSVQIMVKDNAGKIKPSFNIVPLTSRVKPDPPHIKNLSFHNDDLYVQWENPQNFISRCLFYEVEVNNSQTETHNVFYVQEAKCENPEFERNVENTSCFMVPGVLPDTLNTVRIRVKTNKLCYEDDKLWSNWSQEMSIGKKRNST
T2 sequence (looked up) 2: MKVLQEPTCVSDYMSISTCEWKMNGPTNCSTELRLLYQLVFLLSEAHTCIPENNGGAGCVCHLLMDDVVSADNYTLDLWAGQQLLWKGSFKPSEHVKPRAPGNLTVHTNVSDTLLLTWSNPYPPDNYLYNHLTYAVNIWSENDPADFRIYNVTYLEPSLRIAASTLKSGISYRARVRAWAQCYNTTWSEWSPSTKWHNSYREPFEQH

T3: IL-13Rα1 monomer (IL-13Rα1 extracellular domain) (human, UniProt P78552 22-343)
T3 construct: extracellular domain; Expressed and purified as in Yang et al. 2006; also called IL-13RI1; IL-13R1
T3 sequence (looked up): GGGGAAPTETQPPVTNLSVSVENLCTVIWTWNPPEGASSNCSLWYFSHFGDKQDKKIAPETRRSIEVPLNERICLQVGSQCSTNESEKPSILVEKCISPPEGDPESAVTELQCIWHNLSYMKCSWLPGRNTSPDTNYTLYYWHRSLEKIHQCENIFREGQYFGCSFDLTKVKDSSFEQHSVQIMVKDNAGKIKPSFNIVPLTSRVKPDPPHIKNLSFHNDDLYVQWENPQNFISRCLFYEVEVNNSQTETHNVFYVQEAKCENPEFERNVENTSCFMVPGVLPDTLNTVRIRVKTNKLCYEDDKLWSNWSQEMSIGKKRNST

T4: Cy5-IL-13Rα1 (Cy5 labeled IL-13Rα1) (human, UniProt P78552 22-343, Cy5 label, directly labeled; site not stated)
T4 construct: extracellular domain; also called IL-13R-Cys5; Cy5-IL-13RI1
T4 sequence (looked up): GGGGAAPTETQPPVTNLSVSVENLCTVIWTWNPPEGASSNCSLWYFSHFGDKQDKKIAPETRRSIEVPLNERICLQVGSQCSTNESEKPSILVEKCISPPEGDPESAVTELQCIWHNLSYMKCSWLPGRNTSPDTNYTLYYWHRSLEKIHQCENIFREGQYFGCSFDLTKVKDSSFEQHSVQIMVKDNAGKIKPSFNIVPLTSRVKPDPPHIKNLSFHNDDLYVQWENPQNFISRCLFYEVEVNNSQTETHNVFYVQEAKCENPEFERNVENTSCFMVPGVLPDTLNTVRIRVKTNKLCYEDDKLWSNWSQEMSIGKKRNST

B1: Human recombinant IL-13 (ligand)
chain: not shown
notes: also called interleukin-13; unlabeled IL-13
B2: Eu-IL-13 (europium chelate labeled IL-13) (ligand)
chain: not shown
modifications: europium chelate (Eu) label, directly labeled; site not stated
notes: also called Eu-labeled IL-13

Columns and labels:
[1] = target: T1, Cy5-IL-13Rα1 plus IL-4R (500 nM) in …; test: TR-FRET assay 1, competition with 10 nM Eu-IL-13, 10 nM Cy5-IL-13Rα1, 500 nM IL-4R
Method: (§1) All TR-FRET experiments were performed on a 384-well black plate (Corning Costar, Acton, Mass.) in 20 μL final volume of PBS plus 0.1% BSA. For example, excitation and emission conditions for TR-FRET assay 1 and 2 were 345 nm and 665 nm, respectively. All TR-FRET measurements were taken using an Envision plate reader (Perkin Elmer) using the TR-FRET mode.
(§2) Assays were performed as described in Example 5. Competition experiments were performed by adding various concentrations of unlabeled IL-13, IL-13R110Q, or IL-13Rα1 to the Eu-IL-13 (10 nM)/Cy5-IL-13Rα1 (10 nM) binary complex with or without IL-4R (500 nM).

[2] = target: T1, Cy5-IL-13Rα1 plus IL-4R (500 nM) in …; test: TR-FRET assay 1, competition with Eu-IL-13, with 500 nM IL-4R, Kd calculated from IC50
Method: (§3) FIGS. 6A-6F are a series of line graphs showing binding comparisons of IL-13, IL-13R110Q, and IL-13Rα1 in the formation of the binary and ternary complex measured using TR-FRET assay 1. FIGS. 6A and 6B are line graphs showing TR-FRET ratio formed by 10 nM each Eu-IL-13 and Cy-5-IL-13Rα1 with increasing concentrations of unlabeled (A) IL-13 or (B) IL-13R110Q to disrupt the binary complex. FIGS. 6C and 6D are line graphs showing TR-FRET ratio formed by 10 nM of Eu-labeled IL-13 and Cy-5-labeled IL-13Rα1 plus 500 nM of IL-4R and increasing concentrations of unlabeled (C) IL-13 (D) or IL-13R110Q to disrupt the ternary complex. FIGS. 6E and 6F are line graphs showing TR-FRET ratio formed by 10 nM each Eu-IL-13 and Cy5-IL-13Rα1 monitored after adding increasing concentrations of unlabeled IL-13Rα1 in the (E) absence and (F) presence of 500 nM of IL-4R. For all of FIGS. 6A-6F, dissociation constants were calculated from IC50 values using Equation (2). All experiments were done in duplicate and the data points were an average of two.

[3] = target: T2, IL-13Rα1 + IL-4R co-immobilised on one …; test: SPR, IL-13Rα1 and IL-4R co-immobilised, against IL-13Rα1 alone
Method: (§4) As shown in FIG. 1A (IL-13) and FIG. 1B (IL-13R110Q), the binding profiles of IL-13 and IL-13R110Q were dose-dependent, reached saturation, and at the higher concentrations, reached equilibrium. Briefly, the binding affinity of IL-13 and IL-13R110Q to IL-13Rα1 and IL-13RI1/IL-4R was measured in a label-free system, using a Biacore 3000 instrument. IL-13Rα1 (about 800 RU) was immobilized by direct amine linkage. Various concentrations of (FIG. 1A) IL-13 or (FIG. 1B) IL-13R110Q ranging from 0.325 nM to 40 nM were injected over the Il-13RI1 sensor chip surface. In order to measure the interaction of IL-13 with its high affinity receptor, both IL-13Rα1 (˜600 RU) and IL-4R (˜900 RU) were directly immobilized in a CM5 surface. Various concentrations of IL-13 (FIG. 1C) or IL-13R110Q (FIG. 1D) were injected over the surface. Data shown are triplicate injections of analyte. Data sets for IL-13 and IL-13R100Q fit well to a 1:1 interaction model and were characterized by similar rapid on and off rates.
(§5) A combination of IL-13Rα1 and IL-4R were co-immobilized on a research grade CM5 sensor chip that was activated as described in Example 1. […]
(§6) The ratio of IL-13Rα1 to IL-4R on the heterogeneous surface ranged from 1:1 to 1:10. Association and dissociation rates to each all IL-13Rα1 and IL-4R heterogeneous surfaces were analyzed for a broad range of concentrations of both IL-13 and IL-13R110Q. […]

[4] = target: T3, IL-13Rα1 monomer (IL-13Rα1 …); test: SPR, IL-13Rα1 immobilised
Method: IL-13Rα1 was immobilized on the surface of a research grade CM5 sensor chip, as follows. Each chip was activated using a 30 second pulse of N-ethyl-N-(2-dimethylaminopropyl)carbodiimide hydrochloride mixed with N-hydroxylsuccinimide (NHS-EDC). IL-13RI1 (10 μg/ml) in 10 mM sodium acetate pH 4.0 was then injected over the activated surfaces for one to two minutes to achieve surface densities between 200 and 1160 RU. All surfaces were subsequently deactivated by a 5-minute injection of 1 M ethanolamine-HCl prior to performing kinetic experiments.
(§7) Various concentrations of IL-13 or IL-13R110Q ranging from 0.325 nM to 40 nM, or buffer, were prepared in 8.1 mM Na2HPO4, 1.47 mM KH2PO4, pH 7.2, 137 mM NaCl, 2.7 mM KCl, 0.01% BSA, 3.4 mM EDTA and 0.005% Tween 20 (PBS-BET). Each solution of IL-13 and IL-13R110Q was then injected over the surface of the IL-13RI1 coated chip. Measurements were performed at 22° C., 30 μl per minute, and a collection rate of 10 Hz.
Kinetic rates were determined using the 1:1 model for the IL-13Rα1 sensor chip surface and the heterogeneous ligand model for the IL-13Rα1/IL-4R sensor chip surface in Biaevaluation software v4.1. Data shown are mean and standard deviation from at least 3 independent experiments.

[5] = target: T2, IL-13Rα1 + IL-4R co-immobilised on one …; test: SPR, IL-13Rα1 and IL-4R co-immobilised, heterogeneous ligand model, component 2 (high affinity)
From the text: (§8) Experimental data were corrected for instrumental and bulk artifacts by double referencing a control sensor chip surface and buffer injections using Scrubber software (BioLogic Software v1.1 g) (19). The transformed data were globally fit to 1:1 binding models for experiments with the IL-13Rα1 sensor chip surface or the heterologous ligand binding model for experiments with the IL-13Rα1/IL-4R sensor chip surface using BiaEvaluation v4.1.
(§9) A combination of IL-13Rα1 and IL-4R were co-immobilized on a research grade CM5 sensor chip that was activated as described in Example 1. IL-13Rα1 and IL-4R were then injected separately over the same flow cell for 1-2 minutes, or until surface densities between 200 to 2200 RU were obtained for each receptor. As described above, all surfaces were deactivated by a 5-minute injection of 1 M ethanolamine-HCl prior to performing kinetic experiments.

[6] = target: T4, Cy5-IL-13Rα1 (Cy5 labeled IL-13Rα1); test: TR-FRET assay 1, competition with Eu-IL-13 for Cy5-IL-13Rα1, Kd calculated from IC50
Method: as §3

[7] = target: T2, IL-13Rα1 + IL-4R co-immobilised on one …; test: SPR, IL-13Rα1 and IL-4R co-immobilised, heterogeneous ligand model, component 2 (high affinity); column head misprinted 'Kd 2 × 10^6'
From the text: as §8, §9

[8] = target: T4, Cy5-IL-13Rα1 (Cy5 labeled IL-13Rα1); test: TR-FRET assay 1, competition with 10 nM Eu-IL-13 for 10 nM Cy5-IL-13Rα1
Method: as §1, §2
The decrease in TR-FRET signal was dose-dependent and reached background levels at the highest concentrations for each IL-13 and the R110Q variant.

[9] = target: T3, IL-13Rα1 monomer (IL-13Rα1 …); test: SPR, IL-13Rα1 immobilised, 1:1 model
Method: as §7, §8

[10] = target: T2, IL-13Rα1 + IL-4R co-immobilised on one …; test: SPR, IL-13Rα1 and IL-4R co-immobilised
Method: as §4, §5, §6

[11] = target: T2, IL-13Rα1 + IL-4R co-immobilised on one …; test: SPR, IL-13Rα1 and IL-4R co-immobilised, heterogeneous ligand model, component 1 (lower affinity)
From the text: as §8, §9

[12] = target: T3, IL-13Rα1 monomer (IL-13Rα1 …); test: TR-FRET assay 1, competition with Cy5-IL-13Rα1 for Eu-IL-13, no IL-4R, Kd calculated from IC50
Method: as §3

[13] = target: T4, Cy5-IL-13Rα1 (Cy5 labeled IL-13Rα1); test: TR-FRET assay 1, direct binding: Cy5-IL-13Rα1 titrated into 10 nM Eu-IL-13
Method: FIGS. 5A and 5B are line graphs showing dissociation constants of Cy5-IL-13Rα1 in the absence of IL-4R (A) or in the presence of IL-4R (B) measured using TR-FRET assay 1. Increasing concentrations of Cy5-IL-13Rα1 were added to 10 nM Eu-IL-13. IL-4R was added at 500 nM. Dissociation constants were calculated from IC50 values using Equation (1). All experiments were done in duplicate and the data points were an average of two.

Binder	IC50 [1]	Kd [2]	fold lower Kd than to IL-13Rα1 alone [3]	t½ (decay of binding) [4]	Kd [5]	koff [5]	Kd [6]	kon [7]	IC50 [8]	Kd [9]	koff [9]	kon [9]	t½ of dissociation [10]	koff [11]	kon [11]	Kd [12]	Kd [13]
B1	12 nM	0.3 nM	22 fold	~0.833 min	0.23 nM	0.003 s⁻¹	5.7 nM	1.38e+07 M⁻¹ s⁻¹	24 nM	4.88 nM	0.014 s⁻¹	2.87e+06 M⁻¹ s⁻¹	~3.83 min	0.028 s⁻¹	3.79e+06 M⁻¹ s⁻¹		
B2																4.3 nM	6 nM
